Where “and” joins values, the source holds several entries; their conditions need not be identical. Identical values can stand only once. Over roughly 5,300 compounds, “PER2::LUC luminescence relative to vehicle control” has its median near 0.96; the highest 2% begin near 1.3. This is one part of the list.
System: mPer2Luc MEF
Test: PER2::LUC luminescence relative to vehicle control (fold of vehicle); higher = higher PER2::LUC reporter signal
Details: 10 µM
Outline: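 Compounds from commercial libraries were added at 10 μM to 384-well plates seeded 48 h earlier with ~3000 mPer2Luc mouse embryonic fibroblasts per well. The cells were kept in DMEM with 10% FBS at 37 °C and 5% CO2. Luminescence was read with ONE-Glo 24 h and 30 h after treatment, then an alamarBlue viability assay was run. Values are PER2::LUC luminescence relative to vehicle control, as fold change.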

SMILES	PER2::LUC luminescence (time after treatment 24 h)	PER2::LUC luminescence (time after treatment 30 h)
O=c1ccc2c(OCCCCc3ccccc3)c3ccoc3cc2o1	0.999	0.987
CCC1=C[C@@H]2CN(C1)Cc1c([nH]c3ccccc13)[C@@](C(=O)OC)(c1cc3c(cc1OC)N(C)[C@H]1[C@@](O)(C(=O)OC)[C@H](OC(C)=O)[C@]4(CC)C=CCN5CC[C@]31[C@@H]54)C2	0.282 and 0.208	0.342 and 0.24
CCn1c(=O)[nH]c2ccccc21	0.773	0.839
CNC(=C[N+](=O)[O-])NCCSCc1csc(CN(C)C)n1	1.05	1.05
O=C(O)C1=CCNCC1	1.03	1.14
OCc1ccccc1	1.11	0.99
CN1CCN(C2=Nc3ccccc3Sc3ccc(Cl)cc32)CC1	1.06	1
CC1(C)[C@@H](O[C@H]2O[C@H](C(=O)O)[C@@H](O)[C@H](O)[C@H]2O[C@@H]2O[C@H](C(=O)O)[C@@H](O)[C@H](O)[C@H]2O)CC[C@]2(C)[C@H]3C(=O)C=C4[C@@H]5C[C@@](C)(C(=O)O)CC[C@]5(C)CC[C@@]4(C)[C@]3(C)CC[C@@H]12	0.967 and 0.965 and 0.915	0.967 and 0.915 and 0.909
COc1cc2nccc(Oc3ccc(NC(=O)Nc4ccc(F)cc4F)c(F)c3)c2cc1OC	0.785	0.689
C[C@]12C=CC(=O)C=C1CC[C@@H]1[C@@H]2C(=O)C[C@@]2(C)[C@H]1CC[C@]2(O)C(=O)CO	1.02	1.08
C[C@]12C=CC(=O)C=C1CC[C@@H]1C2=CC[C@]2(C)[C@@H](C(=O)CN3CCN(c4cc(N5CCCC5)nc(N5CCCC5)n4)CC3)CC[C@@H]12	0.972	1.02
Nc1ncnc2nc(-c3ccc(N4CCOCC4)nc3)cc(-c3cccc(Br)c3)c12	0.907	0.868
c1ccc2c(Oc3nc(Nc4ccc(N5CCOCC5)cc4)c4ncn(C5CCCCC5)c4n3)cccc2c1	1.04	1.08
CCOC(=O)CCC(=O)O[C@H]1[C@H](O[C@@H]2[C@@H](C)[C@H](O[C@H]3C[C@@](C)(OC)[C@@H](O)[C@H](C)O3)[C@@H](C)C(=O)O[C@H](CC)[C@@](C)(O)[C@H](O)[C@@H](C)C(=O)[C@H](C)C[C@@]2(C)O)O[C@H](C)C[C@@H]1N(C)C	0.927	0.998
COc1cc(NC(=O)c2ccc(-c3ccc(Cl)cc3)o2)cc(OC)c1	0.947	1.04
C[n+]1cccc(C(=O)[O-])c1	1.01 and 0.913	1.04 and 0.928
COc1cc(C)c(/C=C/C(C)=C/C=C/C(C)=C/C(=O)O)c(C)c1C	1.82	2.04
CC(C)OC(=O)CCC/C=C\C[C@@H]1[C@@H](CC[C@@H](O)CCc2ccccc2)[C@H](O)C[C@@H]1O	0.885	0.933
CC(C)(F)C[C@H](N[C@@H](c1ccc(-c2ccc(S(C)(=O)=O)cc2)cc1)C(F)(F)F)C(=O)NC1(C#N)CC1	0.945	0.902
O=C(Nc1ccccc1)C12C=C1C(=NO)c1ccccc1O2 (configuration not stated)	1.08	0.974
CN(C)CCc1c[nH]c2ccc(C[C@H]3COC(=O)N3)cc12	0.968	1.16

SMILES	PER2::LUC luminescence (time after treatment 24 h)	PER2::LUC luminescence (time after treatment 30 h)
O=C1c2cccc(O)c2C(=O)c2c(O)cc(CO)cc21	1.01	1.02
CN(C)CCC=C1c2ccccc2C=Cc2ccccc21	0.35	0.5
CC(=O)O[C@H]1CC[C@]2(C)[C@H]3CC=C4[C@@H]5CC(C)(C)CC[C@]5(C)CC[C@@]4(C)[C@]3(C)CC[C@H]2C1(C)C	1.07	0.99
COc1cc(/C=C/C(=O)O)ccc1O	1.04	1.06
C[N+]1(C)CCC(=C(c2ccccc2)c2ccccc2)CC1	1.05 and 1.08	0.967 and 0.929
NS(=O)(=O)c1cc2c(cc1Cl)NCNS2(=O)=O	1	0.871
O=C(NC1CCOCC1)c1ccc(-c2cc(-c3c[nH]nc3-c3ccccn3)ccn2)cc1	0.936	0.865
O=C1C(=O)N(Cc2ccc(Cl)c(Cl)c2)c2ccccc21	0.666	0.802
COc1ccc(C(=O)N2CCN(C(=O)/C=C/c3ccc(Br)cc3)CC2)cc1	1.06	0.954
CNNCc1ccc(C(=O)NC(C)C)cc1	0.827	0.897
Nc1ccc(C(=O)Oc2ccccc2)c(O)c1	0.958	1.54
O=c1[nH]c(=O)n([C@H]2C[C@H](O)[C@@H](CO)O2)cc1F	1.1	0.725
NCCCCN(Cc1nc2ccccc2[nH]1)[C@H]1CCCc2cccnc21	0.946	0.739
C/C(=N\NC(=S)N1CCC1)c1ccccn1	0.15	0.137
CC1=C(/C=C/C(C)=C/C=C/C(C)=C/C(=O)Nc2ccc(O)cc2)C(C)(C)CCC1	0.452 and 1.09	0.603 and 1.06
NC(=O)c1ncn([C@@H]2O[C@H](CO)[C@@H](O)[C@H]2O)c1N	1.32 and 0.733	1.18 and 0.988
COc1cc2c(cc1OC)[C@@H](c1ccccc1)CN(C)CC2	1.1	1
CC1=CC(=O)CC(C)(C)C1(O)/C=C/C(C)=C\C(=O)O (mixture of isomers)	0.994	0.957
Nc1ncnc2c1ncn2[C@@H]1O[C@H](COP(=O)(O)O)[C@@H](O)[C@H]1O	1.22 and 1.13	1.14 and 1.05
CCC(=O)O[C@H]1[C@H](O[C@@H]2[C@@H](C)[C@H](O[C@H]3C[C@@](C)(OC)[C@@H](O)[C@H](C)O3)[C@@H](C)C(=O)O[C@H](CC)[C@@](C)(O)[C@H](O)[C@@H](C)C(=O)[C@H](C)C[C@@]2(C)O)O[C@H](C)C[C@@H]1N(C)C	0.918	0.918
